About 540 (0.36%) of roughly 150,000 compounds showed an effect of 50% or more. Some of the results follow.
System: Plasmodium falciparum
Assay: Primary screen in NF54 nanoGlo assay, in single point, at 2uM, 72h; a lower Z score goes with more inhibition
Type: functional, Erythrocyte
Settings: timepoint 72 hour

| Compound | % Inhibition [%] | Z score |
| --- | --- | --- |
| Cc1ccsc1CNC(=O)[C@H](C)NC(N)=O | -9 | 1.81 |
| COC[C@H]1CCN(c2cncc(Br)c2)C1 | -3 | 0.35 |
| COc1ccccc1C1CN(C(=O)c2cccc(Cl)c2)CC1C(=O)NC1CC1 (stereo not drawn) | -12 | 2.08 |
| Cc1nc[nH]c1C(=O)N1CCN(CC(C)C)[C@@H]2CS(=O)(=O)C[C@@H]21 | -10 | 1.47 |
| CCCc1cnc(C)nc1N1CCC[C@H](CNC(=O)c2cc(C)cc(F)c2)C1 | 5 | -0.55 |
| Cn1nc(-c2ccccn2)cc1CNC(=O)c1cccs1 | -15 | 1.79 |
| CC(=O)N[C@H]1C[C@@H](c2[nH]nc(C)c2Cl)O[C@@H](C2CCCCC2)C1 | 0 | -0.03 |
| Nc1ccncc1-n1cnc(-c2cccs2)c1 | 11 | -1.65 |
| Cc1ccc(-n2nc3c(N4CCC[C@H](C(=O)NCc5cccnc5)C4)nnc(C)c3c2C)cc1 | -5 | 0.77 |
| COC1(c2ccccc2)CCN(c2ccncn2)CC1 | 0 | -0.01 |
| O=C1[C@@H](NCc2cncnc2)CCN1c1ccc(Cl)cc1Cl | -9 | 0.89 |
| COc1ccc(C(=O)c2sc(N3CCN(C(=O)c4ccco4)CC3)nc2-c2ccccc2)cc1 | -3 | 0.33 |
| Cn1nccc1C1CCN(S(=O)(=O)c2ccc3c(c2)CCO3)CC1 | -10 | 1.74 |
| COCCOCC(=O)Nc1cccc(N)c1C | 7 | -1.06 |
| COc1cccc(CN2CCC[C@@]3(CCN(CCC(C)C)C3)C2)c1OC | -11 | 1.38 |
| COCCCN(Cc1cnc(-c2cccc(C)c2)nc1)C1CCN(C)CC1 | -10 | 1.42 |
| COc1ccc(OCCN2CC3(CCCC3)CC2=O)cc1 | 0 | 0.04 |
| Cc1c(CN(CCO)Cc2nccn2C)[nH]c2c(Cl)cccc12 | -14 | 1.41 |
| O=C(NCCc1ccc(Cl)cc1)c1ccc(CN2CC(=O)N3CCC[C@H]3C2=O)cc1 | -19 | 3.67 |
| Cc1c(-c2nc([C@H]3CCOC3)no2)nnn1-c1cccc2cccnc12 | -12 | 1.56 |
| Cc1c(Cl)ccc2sc(N(Cc3ccccn3)C(=O)c3ccccc3Oc3ccccc3)nc12 | 7 | -0.89 |

| Compound | % Inhibition [%] | Z score |
| --- | --- | --- |
| CCOc1cc2cc(c1)C(=O)N(C)CC(=O)N[C@@H]1CN(C(=O)CCc3cccnc3)CC[C@@H]1OCc1cccc(c1)O2 | 27 | -3.77 |
| COC[C@H](C)NC(=O)c1sc2ncnc(N3CCCCCCC3)c2c1C | 18 | -2.37 |
| CCNS(=O)(=O)c1ccc2c(c1)N(Cc1nnnn1C1CC1)CC2 | 3 | -0.45 |
| C[C@H]1CN(C(=O)c2ccc3ccc(Cl)cc3n2)CCN1 | -7 | 0.73 |
| COc1ccc(CN2C(=O)COC[C@H]2C(=O)N2CCC(Cc3ccccc3)CC2)cc1 | -6 | 0.71 |
| C[C@H]1CNCCN1C(=O)CCc1ccc(C(F)F)cc1 | -8 | 1.06 |
| O=C1CCCc2nn(-c3ccccc3)c(-c3ccc(O)cc3)c21 | -17 | 2.27 |
| CCC(NCC1CC=CCC1)c1cnn(C)c1 (stereo not drawn) | -4 | 0.55 |
| Cc1cccc(NC(=O)Nc2cccc(CNC(=O)C3CCCC3)c2)c1 | 1 | -0.14 |
| Cc1ccc(C(=O)OCCC(N)=O)cc1Cl | 0 | 0.04 |
| COCC(=O)N(Cc1c(C(C)C)nn(-c2ccccc2)c1Oc1cccc(F)c1)CC1CC1 | -4 | 0.33 |
| COc1cccc([C@@H](O)CNc2ccc(-n3nc(C)cc3C)cn2)c1 | 3 | -0.52 |
| COc1ccc(CN2CC[C@@]3(CCCN(C(=O)C(C)C)C3)C2)c(C)c1 | -4 | 0.46 |
| Cc1cccc(C[C@H](C)NS(=O)(=O)c2cc(C)sc2C)n1 | -10 | 1.58 |
| Cc1nscc1C(=O)NC1CN(Cc2ccccc2)CC1C (stereo not drawn) | -10 | 1.41 |
| Cc1cc(CN2CCN(c3ccc4cc(Cl)cnc4n3)CC2)on1 | -8 | 1.02 |
| COc1ccccc1-n1nc(C)c(Cc2ccc(C)cc2)c1O | 3 | -0.37 |
| CC(C)c1ccc(NC(=O)CCCC(=O)O)cc1 | 36 | -1.05 |
| c1cncc(CN(Cc2ccco2)c2ccc3nccnc3n2)c1 | -7 | 0.84 |
| c1cn2c(n1)CN(c1ncnc3ccsc13)CC2 | -14 | 1.51 |
| Cc1nn(-c2ccccc2)c(C)c1-c1ccnc(NCC(F)(F)F)n1 | -5 | 0.65 |

| Compound | % Inhibition [%] | Z score |
| --- | --- | --- |
| O=S(=O)(CC1CCCO1)N1CCOCC1c1cccc(F)c1 (stereo not drawn) | -5 | 0.81 |
| O=C(NC1CCOCC1)N1CCO[C@H](c2cc(Cl)cc(Cl)c2)C1 | -8 | 0.86 |
| COc1c(CNCc2nc3cc(Cl)ccc3s2)c(C)nn1C | 9 | -0.84 |
| O=C1NC2(CCN(C(=O)NCc3ccc(F)cc3)CC2)Nc2c(Cl)cccc21 | -11 | 1.42 |
| CC1CCCC(CNCc2ccncc2)(N(C)C)C1 (stereo not drawn) | -17 | 1.99 |
| Cc1nn(C)c(C)c1CN1CCN(S(C)(=O)=O)c2ccccc2C1 | -16 | 1.38 |
| N#Cc1cc(F)c(NCCCn2cncn2)c(F)c1 | -2 | 0.3 |
| Cc1cc(C(=O)Nc2nnc(-c3ccc(S(=O)(=O)N(C)C)cc3)o2)no1 | -7 | 0.92 |
| FC(F)(F)c1cc(-c2cc[nH]n2)c2nc[nH]c2c1 | 10 | -1.67 |
| NC(=O)[C@H]1CCCN(Cc2ccc(NCc3ccns3)cc2)C1 | -13 | 1.52 |
| CC[C@H]1CCCN(C(=O)Nc2sc(C)nc2C)C1 | -11 | 1.47 |
| CC(=O)N1CCC[C@H](c2noc(-c3sc4cccc(F)c4c3C)n2)C1 | -11 | 2.02 |
| Cc1cnn(CC(C)NCC(=O)NC2CCCc3ccccc32)c1 (stereo not drawn) | -9 | 1.43 |
| COc1ccc2oc(CNc3ncc(F)c(N4CCOCC4)n3)nc2c1 | -3 | 0.4 |
| CCCNC(=O)CCCn1nnc2cc(S(=O)(=O)N3CCCCC3)ccc21 | -15 | 2.06 |
| Cc1ccc(Cl)cc1NC(=O)CC1(N2Cc3ccccc3C2=O)CCOCC1 | -5 | 0.78 |
| CC(C)CCNC(=O)N1CCOc2ccc(C(=O)N3CCOCC3)cc2C1 | -1 | 0.21 |
| CCC(NC(=O)Cn1nc(C)cc1N)[C@H]1C[C@H](O)C1 (stereo partly drawn) | -11 | 2.15 |
| CCO[C@H]1COCC[C@@H]1NC(=O)c1ccc2c(c1)CCCC2 | 14 | -1.9 |
| O=C(c1ccn(COc2ccccc2Cl)n1)N1CCOCC1 | 2 | -0.35 |
| Cc1ccc(-c2nccc(Nc3cccc(C(=O)NCCC4=CCCCC4)c3)n2)cc1 | 3 | -0.27 |

| Compound | % Inhibition [%] | Z score |
| --- | --- | --- |
| O=C(NC1CCN(c2ncnc3c2CCCC3)CC1)c1ccco1 | -10 | 1.26 |
| CC(=O)N1CCc2nc(-c3ccco3)nc(N3CCCOCC3)c2CC1 | 0 | -0.02 |
| CCn1ccc(C(=O)N2CCC[C@@]3(CCC(=O)N(Cc4cccnc4)C3)C2)n1 | -4 | 0.8 |
| CCNC(=O)N(C1CC1)[C@H]1CCOC2(CCN(C(=O)Nc3ccc(OC)cc3)CC2)C1 | -12 | 1.78 |
| CCC(C)(C)NC(=O)c1ccc(Cl)cc1 | 1 | -0.2 |
| CN(C(=O)Cc1cc(Cl)ccc1Br)c1cnn(C)c1 | -11 | 1.77 |
| CC(C)N(CC(F)(F)F)S(=O)(=O)c1cccc2ccncc12 | -4 | 0.58 |
| C=CCNC(=O)c1snc(-c2ccncc2)c1N | -7 | 1.2 |
| CCC(NC(=O)CCC(F)(F)F)[C@H]1C[C@H](O)C1 (stereo partly drawn) | -16 | 1.63 |
| CC(C)(C)OC(=O)N/N=C(\N)c1ccc(Cl)cc1 | -14 | 1.64 |
| O=C(NCc1ccccc1)C(=O)N(Cc1ccccc1)C1CC1 | -17 | 1.46 |
| CCN1CCC(CC(=O)N2CCN(c3ccccc3)[C@H](C(=O)O)C2)CC1 | -15 | 2.95 |
| CN(C)c1ccc(-c2nnnn2[C@H]2CO[C@H]3[C@@H]2OC[C@@H]3NC(=O)Nc2ccccc2)cc1 | 13 | -1.54 |
| COCC(=O)N[C@@H]1CC[C@H]2CCOc3ccccc3C(=O)N3CCN(C4CCC(F)(F)CC4)C[C@H]3C(=O)NC[C@H]1O2 | -4 | 0.54 |
| O=C(Cn1nc(C2CC2)cc1C(=O)N1CCCC1)Nc1ccc(F)cc1Cl | -12 | 1.85 |
| CNC(=O)c1cc(NC(=O)N2CCC[C@]3(CC2)CNC(=O)O3)ccc1OC | -5 | 0.46 |
| Cc1nc(C)c(-c2cccc(C(=O)NCCCN3CCNC(=O)C3)c2)s1 | 0 | -0.04 |
| O=C(NCc1c(Cl)c(Cl)cc(Cl)c1OC(=O)c1cccc2ccccc12)c1ccccc1 | -14 | 2.45 |
| CCOC(=O)N1CCc2c(nc(-c3ccc(C)cc3)n(CC(=O)Nc3ccc(C(C)C)cc3)c2=O)C1 | 36 | -4.11 |
| Cc1nnsc1CN1CCC[C@H]1C(=O)N1CCCCC1 | -10 | 2.09 |
| COCCN(Cc1nc(C(=O)NC(C)C)cs1)C(=O)Nc1ccc(C(C)C)cc1 | 33 | -0.65 |

— ChEMBL document CHEMBL4888484, “Replenishing the malaria drug discovery pipeline: Screening and hit evaluation of the MMV Hit Generation Library 1 (HGL1) against asexual blood stage Plasmodium falciparum ,using a nano luciferase reporter read-out” (2022)
